From a collection of fitness landscapes (doi:10.1016/j.celrep.2020.107928)
Over roughly 81,000 sequences, “one-hybrid fitness for binding parS DNA” has its median near -0.17; the highest 2% begin near 0.51. This is one part of the list.

B1: Caulobacter ParB omega fusion; a variant is named by its letters at X, in order, B8GW30 (parent)
chain: MESVVVGEPGMSEGRRGLGRGLSALLGEVDAAPAQAPGEQLGGSREAPIEILQRNPDQPRRTFREEDLEDLSNSIREKGVLQPILVRPSPDTAGEYQIVAGERAWRAAQRAGLKTVPIMVRELDDLAVLEIGIIENVQRADLNVLEEALSYKVLMEKFERTQENIAQTIGKSXSHVANXMRLLXLPDEVQSYLVSGELTAXHARAIAAAADPVALAKQIIEGGLSVRETEALARKAPNLSAGKSKGGRPPRVKDTDTQALESDLSSVLGLDVSIDHRGSTGTLTITYATLEQLDDLCNRLTRGI

Variants of: B1
Test: one-hybrid fitness for binding parS DNA (scaled: cognate 1, non-cognate 0); higher = stronger binding
Settings: with parS DNA site
In short: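 On M9-minus-histidine containing 0.1 mM IPTG and 5 mM 3-AT, E. coli USO cells with a HIS3 reporter, site 19 bp from the promoter, grew 48 hours at 37°C to select Caulobacter ParB libraries randomised at four specificity codons. Plasmids from before and after were Illumina-sequenced, with three replicate libraries pooled and variants under 10 reads left out. Fitness is the log change in variant-to-wild-type read ratio, rescaled against cognate and non-cognate.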

Variant	one-hybrid fitness for binding parS DNA
VAYE	≤ 0.2
QSWP	≤ 0.2
TPHA	≤ 0.2
DFKL	≤ 0.2
ENIR	≤ 0.2
YQEG	≤ 0.2
AKSN	≤ 0.2
TSVN	≤ 0.2
NYFE	≤ 0.2
GYTV	≤ 0.2
QEQV	≤ 0.2
DVAA	≤ 0.2
REPS	≤ 0.2
DQND	≤ 0.2
VHFW	≤ 0.2
YSCN	≤ 0.2
SPGG	≤ 0.2
YLNY	≤ 0.2
HYSS	≤ 0.2
NADK	≤ 0.2
VTHG	≤ 0.2
WRQN	≤ 0.2
RIRM	0.373
HVKI	≤ 0.2
TFMD	≤ 0.2

Variant	one-hybrid fitness for binding parS DNA
HCWV	≤ 0.2
RPFA	≤ 0.2
VNPS	≤ 0.2
GRLC	≤ 0.2
SWYD	≤ 0.2
NLYR	≤ 0.2
SSKQ	≤ 0.2
QKPL	≤ 0.2
SSTK	≤ 0.2
RDKC	0.282
MAWK	≤ 0.2
RIVV	≤ 0.2
QKPI	≤ 0.2
QQSI	≤ 0.2
PHTM	≤ 0.2
QMPG	≤ 0.2
SIDR	≤ 0.2
KQRQ	≤ 0.2
CEDV	≤ 0.2
RAKP	≤ 0.2
CMNS	≤ 0.2
NNHL	≤ 0.2
HMPF	≤ 0.2
MAST	≤ 0.2
WPYP	≤ 0.2

Variant	one-hybrid fitness for binding parS DNA
KIPR	≤ 0.2
EMSS	≤ 0.2
LDNA	≤ 0.2
NRVG	≤ 0.2
TIDT	≤ 0.2
LNSN	≤ 0.2
ICMR	≤ 0.2
AMSC	≤ 0.2
FASL	≤ 0.2
YQVF	≤ 0.2
NQWC	≤ 0.2
QTRG	≤ 0.2
PMWV	≤ 0.2
CSIM	≤ 0.2
SRMT	≤ 0.2
SHVS	≤ 0.2
PRRL	≤ 0.2
VTGS	≤ 0.2
TPCV	≤ 0.2
YENK	≤ 0.2
REYC	≤ 0.2
SPIN	≤ 0.2
YLTY	≤ 0.2
SSTF	≤ 0.2
DSRC	≤ 0.2

Variant	one-hybrid fitness for binding parS DNA
MEDY	≤ 0.2
GHHA	≤ 0.2
HVGT	≤ 0.2
GVRD	≤ 0.2
WWAS	≤ 0.2
PNNW	≤ 0.2
VLLT	≤ 0.2
QCVY	≤ 0.2
ADRC	≤ 0.2
RKHN	0.375
FNGA	≤ 0.2
SCWS	≤ 0.2
LASY	≤ 0.2
HIMN	≤ 0.2
HANL	≤ 0.2
QLKE	≤ 0.2
SQFR	≤ 0.2
LCWV	≤ 0.2
CEGR	≤ 0.2
QHFK	≤ 0.2
DGIR	≤ 0.2
QYEC	≤ 0.2
QAQP	≤ 0.2
VEIA	≤ 0.2
QLHQ	≤ 0.2

Variant	one-hybrid fitness for binding parS DNA
STIY	≤ 0.2
SRQG	≤ 0.2
SLPI	≤ 0.2
GVKW	≤ 0.2
APPM	≤ 0.2
QSTT	≤ 0.2
YSKH	≤ 0.2
TRMF	≤ 0.2
CYAC	≤ 0.2
KWTG	≤ 0.2
GLLY	≤ 0.2
KTIS	≤ 0.2
RWDC	0.635
FRPC	≤ 0.2
RKVT	0.795
GMSV	≤ 0.2
KDLE	≤ 0.2
RTRQ	≤ 0.2
DDCL	≤ 0.2
RTRR	≤ 0.2
YSPI	≤ 0.2
TMDC	≤ 0.2
PQTS	≤ 0.2
VYRR	≤ 0.2
NQTG	≤ 0.2

Variant	one-hybrid fitness for binding parS DNA
HKSQ	≤ 0.2
WSHE	≤ 0.2
PHLG	≤ 0.2
PSCI	≤ 0.2
NLCE	≤ 0.2
VIHC	≤ 0.2
VAAM	≤ 0.2
RVPP	≤ 0.2
AKLI	≤ 0.2
HSMR	≤ 0.2
NSTV	≤ 0.2
VLAP	≤ 0.2
EIQG	≤ 0.2
KEHC	≤ 0.2
NYTR	≤ 0.2
SHSC	≤ 0.2
LSED	≤ 0.2
YNTN	≤ 0.2
PPYT	≤ 0.2
HPHF	≤ 0.2
AFRS	≤ 0.2
YLSY	≤ 0.2
QHPT	≤ 0.2
PWPF	≤ 0.2
CCLC	≤ 0.2

Variant	one-hybrid fitness for binding parS DNA
NRNH	≤ 0.2
QSRG	≤ 0.2
GWHS	≤ 0.2
DPQR	≤ 0.2
IWTG	≤ 0.2
RNEY	≤ 0.2
VRHM	0.248
WLKW	≤ 0.2
PFNK	≤ 0.2
HSRC	≤ 0.2
FTRY	≤ 0.2
LGMG	≤ 0.2
RHPC	0.367
KTSW	≤ 0.2
QSCY	≤ 0.2
RQMN	0.423
PCHM	≤ 0.2
DEWR	≤ 0.2
YSAC	≤ 0.2
NREV	≤ 0.2
AHAL	≤ 0.2
KLER	≤ 0.2
AEPW	≤ 0.2
PCGV	≤ 0.2
VFGR	≤ 0.2

Variant	one-hybrid fitness for binding parS DNA
SIIE	≤ 0.2
LIFG	≤ 0.2
QKNW	≤ 0.2
DARR	≤ 0.2
RVYR	≤ 0.2
MTSG	≤ 0.2
SKCC	≤ 0.2
VTDT	≤ 0.2
GEAN	≤ 0.2
DSFC	≤ 0.2
WSVR	≤ 0.2
PSRQ	≤ 0.2
HMNG	≤ 0.2
AMPS	≤ 0.2
SDHT	≤ 0.2
YYMS	≤ 0.2
LEHS	≤ 0.2
HMLD	≤ 0.2
KNIS	≤ 0.2
KIDC	≤ 0.2
